The supplement of paper PMC11417369
± gives the standard deviation of the averaged measurements. The list shows a part of the results.

Test system: PfAP2-LT AP2 domain (GST-tagged)
Experiment: gcPBM binding intensity (ln(normalized median fluorescence intensity)); higher = stronger DNA binding
Method in brief: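 Probes on an Agilent 4 × 180k array were primer-extended, double-stranded and 36 bp long, taken from intergenic genomic regions, with negative controls added. GST-tagged P. falciparum DNA-binding domains from E. coli, about 25 μg on average, were applied to the array for 1 h in 1× PBS containing 1% milk, 0.2 mg/ml BSA, 0.5% salmon testes DNA and 0.03% Triton X-100. Binding intensity, obtained after Alexa488 anti-GST antibody detection and a 488 nm scan, is the highest Masliner-normalised natural-log median intensity across replicate spots of either probe orientation.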

Sequence | gcPBM binding intensity (ln)
TATTGTAAAAAAGCAAAATTTATCACCTCCTTATTT [CACACA_negctrl_site172] | 8.5 ± 0.35
TGTAATACATGTTGTTGTACAATATCTTTAACTTTT [XGTACX_site1219] | 8.84 ± 0.45
CCACTAAAGGCATATACACACATTTTTTAAATTGCC [CACACA_site2839] | 8.98 ± 0.36
TACACAAAAATAAACACACACACATATAAATAAATA [CACACA_site6599] | 9.76 ± 0.3
TTATGGAAAAATATAACACACAATGATTTTTTATAA [CACACA_site1831] | 8.66 ± 0.41
TTTTCGCTTTTATAAAATTATATGAAAAAACTAAAA [XGTACX_negctrl_site139] | 8.01 ± 0.33
ATTTATATAAAATTAAAATAATACAAATTTATTCAT [GTGCAC_negctrl_site305] | 8.31 ± 0.43
TTTTTTACATTCTGCACACAATTTATTTTTTTTTTT [CACACA_site4188] | 9.13 ± 0.45
AAAATTATGCAGTAGGTGCAATACCCTCGGCTTTTT [GTGCAC_site9556] | 8.79 ± 0.39
TTTTTTTTTTTTTTTGGTACACATTTTGGTTAATGG [XGTACX_site5109] | 8.65 ± 0.42
ATAAAAAGGTTTAAAAAAAAAAAAAAAAAAAAAAAA [CACACA_negctrl_site412] | 8.04 ± 0.5
CTTGTGCTTTATAGGGTGCACATTTTGTTTTGGTAA [GTGCAC_site9899] | 8.8 ± 0.45
TTATTAATTATATATAGTACACATTTCACAGATGGG [XGTACX_site2349] | 8.68 ± 0.34
TGAACACATACATACACACACACAAAAAAAAAAAAA [CACACA_site392] | 9.76 ± 0.4
AAAAAAAAACACGCATGTACATAAAAATAATCATAC [XGTACX_site1086] | 9.43 ± 0.49
TTATTTATGAGGGTGACACACAAAAGAGTGTTAAGA [CACACA_site277] | 8.8 ± 0.54
AAATAAAATAAAATAAAATAAAATAAAATAAAATAA [XGTACX_negctrl_site142] | 8.29 ± 0.67
TATTTCAAATGTTATGTGCACATATTAATCCTACTT [GTGCAC_site9738] | 8.86 ± 0.43
AATATCTGAAAATAAAGTACAAACATATTATAAATA [XGTACX_site5738] | 8.84 ± 0.52

Sequence | gcPBM binding intensity (ln)
AATAATAATTTAAAAAGTACATTCTAATAAACACGT [XGTACX_site1444] | 8.78 ± 0.52
TACTTATTTGATTGGGTGCATATATATAGTATGTAT [GTGCAC_site9845] | 8.96 ± 0.35
AATGAATAAATAAACACACACACATATATATATATG [CACACA_site18] | 9.86 ± 0.21
ATTATTGCAATTTAATGTACATAATACAAATTTGCC [XGTACX_site2729] | 8.89 ± 0.45
TATACGTATACCTATACACACATATATATATATATA [CACACA_site1273] | 9.85 ± 0.16
TATATTCAAAAAAATTCATTTCTGATTTTTTTTTTT [CACACA_negctrl_site1085] | 8.3 ± 0.62
TGAAAAAAAAAATGCACACGCATACAGATAATATGT [CACACA_site4526] | 9.27 ± 0.45
AATAATAATAGAAACACACACACATTTTTAAGAATA [CACACA_site6692] | 9.71 ± 0.11
GATGAAATATCATTACGTACACAATAGTTTGTATTT [XGTACX_site5143] | 8.98 ± 0.42
AACATATAAAAATGTGCACACACACCCATATATATA [CACACA_site1525] | 9.79 ± 0.3
TATCTTAACAATTAGTGTACAGATAACCAATTAAAA [XGTACX_site3184] | 8.55 ± 0.39
ATAATAAATGATAGCACACATATGTACATAAATACA [CACACA_site4634] | 9.24 ± 0.31
TGAAGGTTTCAAAAACGTACAAAAAAAAATGTTAGT [XGTACX_site8803] | 8.82 ± 0.49
TTTTTTTTTTATGGTACACACACGCGTATGGTTGCA [CACACA_site1876] | 9.36 ± 0.41
TTTAGAAATAAATACACACATACATTTTTGTATACA [CACACA_site718] | 8.74 ± 0.4
TAAAATAAAAATATAGTGCACAGATTTTGATATTTT [GTGCAC_site9696] | 8.77 ± 0.47
CTTTGTGGTATAGATACACACTATATTAAGATGAAC [CACACA_site5215] | 8.78 ± 0.37
CACATTATGTATCATACACACAAATAGATATATAAC [CACACA_site6434] | 9.38 ± 0.3
ACTTTTATTCGCTTACGTACATATATTATATATTAT [XGTACX_site4459] | 9.44 ± 0.48

Sequence | gcPBM binding intensity (ln)
AAAAGAAAATATATGTGTACTAAAATATATATATAT [XGTACX_site3817] | 9.04 ± 0.36
TTTAAAGTAATAAAGTGTACAAAAATAAATTCAGCT [XGTACX_site8651] | 9.12 ± 0.54
TACCTACACTTTTGGAGTACAATTAAAAAAAAAAAA [XGTACX_site1403] | 8.38 ± 0.46
GTTTATTAAACATTAGTGCAATTTTAATCCATTCTA | 8.39 ± 0.45
CAAATCAAAATTAATTAACACACAATTTTAATATTC [CACACA_site8641] | 8.7 ± 0.44
TTCTTTGTAGTATATTAACACACAACTGTTTATAAT [CACACA_site9305] | 8.97 ± 0.4
AAATAGAGAAATACAAGTACATACTAAACCAATCTA [XGTACX_site2780] | 9.03 ± 0.4
TATAATGTTGATAATAGTACGTATGAGTTCAAAAAA [XGTACX_site988] | 8.7 ± 0.57
AAAGGATATAATACCATACACACATTTATAAAATAA [CACACA_site1931] | 9.06 ± 0.49
AAATCATGTTGAAGGGGTACAAAATATGTAATGTTG [XGTACX_site6222] | 8.94 ± 0.51
ATATTATATATTTGATGTACATTGAATGAGAGAGAA [XGTACX_site3324] | 8.82 ± 0.49
TATATATATATATAATGTACAGAAAAAAAAAAAAAA [XGTACX_site6141] | 8.76 ± 0.45
TTAATCCTTTTTAAAAGTACACATATATATATATAT [XGTACX_site962] | 9.075 ± 0.078
AAAAAAAAAAAAGATACACACAAAAATGAATATATA [CACACA_site2099] | 9.05 ± 0.61
ACGGGTCAATATATGCGTACTTATTTAAATAATTAA [XGTACX_site1518] | 8.68 ± 0.45
ATTATGTATATAAATTAACACACATATGTGGTTAAT [CACACA_site9028] | 8.88 ± 0.3
ATAAATGGAAACAAAAGTACTAAAAAAAAAAAATAA [XGTACX_site1510] | 8.67 ± 0.59
AATAATATAGATTGTACACACAAAATGGGAAAAAAA [CACACA_site1886] | 9.18 ± 0.54
TATATATGTATGTATTGTACAATTAAAAATATGTAT [XGTACX_site3990] | 8.65 ± 0.4
